From publication PMC5062570 (Nature Communications, 2016)

Experiments:
[1] = biological target: PF-7802-labelled proteins in ARPE-19 cells (Homo sapiens, UniProt P17096); conditions: protein HMGA1 High mobility group protein HMG-I/HMG-Y (P17096); one column per replicate
[2] = biological target: PF-7802-labelled proteins in ARPE-19 cells (Homo sapiens, UniProt Q71UI9); conditions: Q71UI9 H2AFV Histone H2A.V
[3] = biological target: PF-7802-labelled proteins in ARPE-19 cells (Homo sapiens, UniProt P09429); conditions: protein HMGB1 High mobility group protein B1 (P09429); one column per replicate
UniProt P09429, sequence (P09429 whole entry): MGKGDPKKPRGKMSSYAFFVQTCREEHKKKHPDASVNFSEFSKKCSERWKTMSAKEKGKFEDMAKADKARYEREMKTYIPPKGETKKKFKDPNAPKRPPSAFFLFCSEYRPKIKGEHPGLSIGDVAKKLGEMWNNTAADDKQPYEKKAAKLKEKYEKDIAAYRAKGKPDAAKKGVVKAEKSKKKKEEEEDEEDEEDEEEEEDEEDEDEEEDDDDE

[4] = biological target: PF-7802-labelled proteins in ARPE-19 cells (Homo sapiens, UniProt P05141); conditions: SLC25A5 ADP/ATP translocase 2 (P05141)
UniProt P05141, sequence (P05141 whole entry): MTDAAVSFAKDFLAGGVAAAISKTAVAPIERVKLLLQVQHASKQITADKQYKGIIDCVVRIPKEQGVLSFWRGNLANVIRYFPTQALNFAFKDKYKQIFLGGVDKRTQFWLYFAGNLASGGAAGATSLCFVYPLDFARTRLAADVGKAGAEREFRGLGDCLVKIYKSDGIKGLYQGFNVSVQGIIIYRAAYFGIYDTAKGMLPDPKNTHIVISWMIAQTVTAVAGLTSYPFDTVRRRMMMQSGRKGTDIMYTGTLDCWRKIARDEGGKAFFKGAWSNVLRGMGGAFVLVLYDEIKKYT

[5] = biological target: PF-7802-labelled proteins in ARPE-19 cells (Homo sapiens, UniProt P13164); conditions: protein IFITM1 Interferon-induced transmembrane protein 1 (P13164); one column per replicate
UniProt P13164, sequence (P13164 whole entry): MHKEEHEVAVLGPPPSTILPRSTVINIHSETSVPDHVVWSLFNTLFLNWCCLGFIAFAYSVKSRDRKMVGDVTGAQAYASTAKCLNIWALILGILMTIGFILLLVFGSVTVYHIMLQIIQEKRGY

[6] = biological target: PF-7802-labelled proteins in ARPE-19 cells (Homo sapiens, UniProt P08582); conditions: protein MFI2 Melanotransferrin (P08582); replicates in separate columns
[7] = biological target: PF-7802-labelled proteins in ARPE-19 cells (Homo sapiens, UniProt Q9HCS7); conditions: protein XAB2 Pre-mRNA-splicing factor SYF1 (Q9HCS7); replicate R1
UniProt Q9HCS7, sequence (Q9HCS7 whole entry): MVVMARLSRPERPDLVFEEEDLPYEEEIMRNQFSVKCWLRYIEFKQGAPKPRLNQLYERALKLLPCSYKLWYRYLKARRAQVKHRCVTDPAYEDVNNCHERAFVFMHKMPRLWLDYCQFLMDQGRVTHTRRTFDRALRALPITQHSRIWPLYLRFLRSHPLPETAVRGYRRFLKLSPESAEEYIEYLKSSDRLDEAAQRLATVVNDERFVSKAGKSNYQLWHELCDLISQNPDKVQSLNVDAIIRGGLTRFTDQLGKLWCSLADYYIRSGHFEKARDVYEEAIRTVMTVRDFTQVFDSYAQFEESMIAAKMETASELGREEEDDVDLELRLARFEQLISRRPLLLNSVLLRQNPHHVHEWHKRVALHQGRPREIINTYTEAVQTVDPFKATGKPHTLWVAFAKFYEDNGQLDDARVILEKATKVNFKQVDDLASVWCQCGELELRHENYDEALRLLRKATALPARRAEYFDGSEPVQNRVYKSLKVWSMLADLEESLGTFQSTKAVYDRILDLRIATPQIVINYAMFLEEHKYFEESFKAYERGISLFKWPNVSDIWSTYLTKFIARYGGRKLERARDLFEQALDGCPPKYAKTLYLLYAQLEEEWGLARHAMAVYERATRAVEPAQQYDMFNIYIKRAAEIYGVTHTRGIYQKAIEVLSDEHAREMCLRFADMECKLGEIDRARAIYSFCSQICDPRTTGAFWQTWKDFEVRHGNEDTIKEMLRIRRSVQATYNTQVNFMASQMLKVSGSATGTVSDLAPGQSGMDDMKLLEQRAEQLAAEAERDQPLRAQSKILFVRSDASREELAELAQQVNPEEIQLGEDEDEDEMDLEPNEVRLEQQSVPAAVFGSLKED

[8] = biological target: PF-7802-labelled proteins in ARPE-19 cells (Homo sapiens, UniProt P07477); conditions: protein PRSS1 Trypsin-1, P07477
[9] = biological target: PF-7802-labelled proteins in ARPE-19 cells (Homo sapiens, UniProt P00338)
[10] = biological target: PF-7802-labelled proteins in ARPE-19 cells (Homo sapiens, UniProt Q96QV6); conditions: Q96QV6 HIST1H2AA Histone H2A type 1-A
[11] = biological target: PF-7802-labelled proteins in ARPE-19 cells (Homo sapiens, UniProt P63096); conditions: P63096 GNAI1 Guanine nucleotide-binding protein G(i) subunit alpha-1
UniProt P63096, sequence (P63096 whole entry): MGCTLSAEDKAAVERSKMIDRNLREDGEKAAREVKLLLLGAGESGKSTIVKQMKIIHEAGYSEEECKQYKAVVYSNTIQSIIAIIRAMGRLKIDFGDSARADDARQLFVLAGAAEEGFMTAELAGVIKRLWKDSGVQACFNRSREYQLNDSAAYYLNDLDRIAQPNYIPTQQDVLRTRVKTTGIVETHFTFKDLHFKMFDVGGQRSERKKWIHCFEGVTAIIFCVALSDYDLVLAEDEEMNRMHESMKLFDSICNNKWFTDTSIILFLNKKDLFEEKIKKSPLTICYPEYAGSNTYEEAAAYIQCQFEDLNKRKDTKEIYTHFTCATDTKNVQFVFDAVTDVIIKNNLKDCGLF

[12] = biological target: PF-7802-labelled proteins in ARPE-19 cells (Homo sapiens, UniProt P06753); conditions: TPM3 Tropomyosin alpha-3 chain (P06753)
UniProt P06753, sequence (P06753 whole entry): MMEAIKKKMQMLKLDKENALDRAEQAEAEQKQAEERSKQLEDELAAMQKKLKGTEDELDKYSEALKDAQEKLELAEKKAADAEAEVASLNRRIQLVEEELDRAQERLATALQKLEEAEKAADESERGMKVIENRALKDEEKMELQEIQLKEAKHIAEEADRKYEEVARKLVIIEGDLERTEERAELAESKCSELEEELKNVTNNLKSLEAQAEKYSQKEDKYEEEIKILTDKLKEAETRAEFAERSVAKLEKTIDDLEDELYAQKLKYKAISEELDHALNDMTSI

[13] = biological target: PF-7802-labelled proteins in ARPE-19 cells (Homo sapiens, UniProt P07951); conditions: TPM2 Tropomyosin beta chain (P07951)
UniProt P07951, sequence (P07951 whole entry): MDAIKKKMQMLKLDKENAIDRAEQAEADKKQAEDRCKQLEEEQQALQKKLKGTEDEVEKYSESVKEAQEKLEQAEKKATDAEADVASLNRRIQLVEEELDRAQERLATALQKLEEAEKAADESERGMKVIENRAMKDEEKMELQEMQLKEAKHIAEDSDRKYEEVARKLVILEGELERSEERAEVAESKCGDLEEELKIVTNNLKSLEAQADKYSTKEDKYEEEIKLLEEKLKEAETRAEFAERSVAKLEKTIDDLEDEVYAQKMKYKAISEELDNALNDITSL

[14] = biological target: PF-7802-labelled proteins in ARPE-19 cells (Homo sapiens, UniProt P07339)
[15] = biological target: PF-7802-labelled proteins in ARPE-19 cells (Homo sapiens, UniProt O95292); conditions: VAPB Vesicle-associated membrane protein-associated protein B/C (O95292)
UniProt O95292, sequence (O95292 whole entry): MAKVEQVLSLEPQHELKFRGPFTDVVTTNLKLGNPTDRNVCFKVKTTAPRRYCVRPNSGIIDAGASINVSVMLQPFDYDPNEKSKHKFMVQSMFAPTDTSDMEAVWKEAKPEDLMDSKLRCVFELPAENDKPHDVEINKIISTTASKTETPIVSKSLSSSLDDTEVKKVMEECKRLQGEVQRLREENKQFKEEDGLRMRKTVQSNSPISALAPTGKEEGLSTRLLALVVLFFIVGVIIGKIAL

[16] = biological target: PF-7802-labelled proteins in ARPE-19 cells (Homo sapiens, UniProt P50454); conditions: SERPINH1 Serpin H1 (P50454)
[17] = biological target: PF-7802-labelled proteins in ARPE-19 cells (Homo sapiens, UniProt Q12905); conditions: […]; one column per replicate
UniProt Q12905, sequence (Q12905 whole entry): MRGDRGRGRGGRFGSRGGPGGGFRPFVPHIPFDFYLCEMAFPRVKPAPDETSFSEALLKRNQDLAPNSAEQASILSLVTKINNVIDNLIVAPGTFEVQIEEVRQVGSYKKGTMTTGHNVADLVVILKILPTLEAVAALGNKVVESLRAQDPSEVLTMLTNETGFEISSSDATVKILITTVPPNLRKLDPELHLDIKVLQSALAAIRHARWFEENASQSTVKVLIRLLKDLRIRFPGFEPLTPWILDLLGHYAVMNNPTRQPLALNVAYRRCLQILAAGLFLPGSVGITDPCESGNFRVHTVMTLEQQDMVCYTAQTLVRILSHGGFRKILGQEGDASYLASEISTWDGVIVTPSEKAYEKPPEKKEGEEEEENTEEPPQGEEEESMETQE

[18] = biological target: PF-7802-labelled proteins in ARPE-19 cells (Homo sapiens, UniProt P07910); conditions: protein HNRNPC Heterogeneous nuclear ribonucleoproteins C1/C2 (P07910); one column per replicate
UniProt P07910, sequence (P07910 whole entry): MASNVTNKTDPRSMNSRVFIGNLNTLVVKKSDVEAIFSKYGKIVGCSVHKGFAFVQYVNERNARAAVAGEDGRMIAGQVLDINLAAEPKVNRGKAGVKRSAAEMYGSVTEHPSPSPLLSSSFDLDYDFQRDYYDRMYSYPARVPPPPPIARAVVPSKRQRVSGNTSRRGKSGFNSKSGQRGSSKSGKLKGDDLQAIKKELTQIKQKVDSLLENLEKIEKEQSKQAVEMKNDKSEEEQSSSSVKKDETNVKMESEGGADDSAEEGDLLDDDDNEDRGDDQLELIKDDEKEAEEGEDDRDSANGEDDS

[19] = biological target: PF-7802-labelled proteins in ARPE-19 cells (Homo sapiens, UniProt P60953); conditions: protein CDC42 Cell division control protein 42 homolog (P60953)
UniProt P60953, sequence (P60953 whole entry): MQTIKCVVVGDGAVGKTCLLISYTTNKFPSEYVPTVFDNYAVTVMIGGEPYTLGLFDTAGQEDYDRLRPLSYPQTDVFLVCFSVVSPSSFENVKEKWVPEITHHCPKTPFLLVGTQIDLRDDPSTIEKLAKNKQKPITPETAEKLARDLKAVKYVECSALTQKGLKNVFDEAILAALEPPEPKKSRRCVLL

[20] = biological target: PF-7802-labelled proteins in ARPE-19 cells (Homo sapiens, UniProt P08574); conditions: protein CYC1 Cytochrome c1, heme protein, mitochondrial (P08574)
[21] = biological target: PF-7802-labelled proteins in ARPE-19 cells (Bos taurus, UniProt P02668); conditions: protein no description (P02668); replicates in separate columns
[22] = biological target: PF-7802-labelled proteins in ARPE-19 cells (Homo sapiens, UniProt Q9UHD8); conditions: SEPT9 Septin-9 (Q9UHD8)
UniProt Q9UHD8, sequence (Q9UHD8 whole entry): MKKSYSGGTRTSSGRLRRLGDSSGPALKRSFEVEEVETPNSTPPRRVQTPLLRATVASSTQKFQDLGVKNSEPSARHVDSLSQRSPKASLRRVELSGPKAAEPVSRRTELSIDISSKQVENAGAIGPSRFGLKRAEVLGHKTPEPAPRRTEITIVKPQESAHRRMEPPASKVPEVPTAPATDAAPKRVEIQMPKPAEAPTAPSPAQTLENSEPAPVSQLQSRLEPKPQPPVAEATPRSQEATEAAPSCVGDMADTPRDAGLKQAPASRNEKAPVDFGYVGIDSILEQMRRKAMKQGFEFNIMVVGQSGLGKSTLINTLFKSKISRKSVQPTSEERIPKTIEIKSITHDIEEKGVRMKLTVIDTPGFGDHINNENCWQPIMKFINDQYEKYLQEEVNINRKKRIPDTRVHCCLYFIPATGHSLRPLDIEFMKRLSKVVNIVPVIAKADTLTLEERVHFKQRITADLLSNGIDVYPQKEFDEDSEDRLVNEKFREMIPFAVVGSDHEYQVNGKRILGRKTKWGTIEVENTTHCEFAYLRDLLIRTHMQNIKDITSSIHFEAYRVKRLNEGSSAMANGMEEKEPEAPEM

[23] = biological target: PF-7802-labelled proteins in ARPE-19 cells (Homo sapiens, UniProt Q00765)
UniProt Q00765, sequence (Q00765 whole entry): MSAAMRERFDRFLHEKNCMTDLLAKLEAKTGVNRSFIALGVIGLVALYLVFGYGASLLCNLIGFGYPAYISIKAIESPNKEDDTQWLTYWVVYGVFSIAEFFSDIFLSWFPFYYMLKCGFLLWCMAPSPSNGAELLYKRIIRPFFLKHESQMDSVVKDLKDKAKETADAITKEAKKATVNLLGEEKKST

[24] = biological target: PF-7802-labelled proteins in ARPE-19 cells (Homo sapiens, UniProt P25398); conditions: protein RPS12 40S ribosomal protein S12, P25398
[25] = biological target: PF-7802-labelled proteins in ARPE-19 cells (Homo sapiens, UniProt P61513)
[26] = biological target: PF-7802-labelled proteins in ARPE-19 cells (Homo sapiens, UniProt P61204); conditions: protein ARF3 ADP-ribosylation factor 3 (P61204)
UniProt P61204, sequence (P61204 whole entry): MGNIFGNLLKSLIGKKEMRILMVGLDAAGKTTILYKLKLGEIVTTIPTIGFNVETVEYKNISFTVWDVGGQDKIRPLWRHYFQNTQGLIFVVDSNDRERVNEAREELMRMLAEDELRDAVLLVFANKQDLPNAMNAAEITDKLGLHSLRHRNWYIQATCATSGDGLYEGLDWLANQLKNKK

[27] = biological target: PF-7802-labelled proteins in ARPE-19 cells (Homo sapiens, UniProt Q9P0J1); conditions: protein PDP1 [Pyruvate dehydrogenase [acetyl-transferring]]-phosphatase 1, mitochondrial (Q9P0J1); replicates in separate columns

UniProt Q71UI9, sequence (Q71UI9 whole entry): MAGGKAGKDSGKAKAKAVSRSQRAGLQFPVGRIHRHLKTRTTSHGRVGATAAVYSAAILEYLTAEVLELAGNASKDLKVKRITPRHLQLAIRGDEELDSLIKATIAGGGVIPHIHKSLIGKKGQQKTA
UniProt P17096, sequence (P17096 whole entry): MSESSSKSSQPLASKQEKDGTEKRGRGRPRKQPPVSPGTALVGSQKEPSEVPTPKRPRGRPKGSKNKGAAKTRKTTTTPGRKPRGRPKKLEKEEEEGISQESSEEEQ

CNC1CCN(C(=O)C[C@@H](Cc2ccccc2)C(=O)N[C@@H](CSC)C(=O)N[C@@H](CC2CCCCC2)[C@@H](O)C(=O)OC(C)C)CC1 [CP-108671, reference compound] was tested, and the “Median SILAC Ratio (Heavy/Light)” value [1] was 1.132, the “SILAC ratio (DMSO/CP-108671)” value [2] was 0.98 and the “Median SILAC Ratio (Heavy/Light)” value [3] was 2.053. For the same compound, the “Median SILAC Ratio (Heavy/Light)” value [4] was 1.019 and 0.923, the “Median SILAC Ratio (Heavy/Light)” value [5] was 0.4522 and the “Median SILAC Ratio (Heavy/Light)” value [6] was 0.8641. For the same compound, the “Median SILAC Ratio (Heavy/Light)” value [7] was 0.9744, the “Median SILAC Ratio (Heavy/Light)” value [8] was 0.7987 and the “SILAC ratio (DMSO/CP-108671)” value ([9]; P00338 LDHA L-lactate dehydrogenase A chain) was 0.51. For the same compound, the “Median SILAC Ratio (Heavy/Light)” value ([9]; protein LDHA L-lactate dehydrogenase A chain (P00338), replicates in separate columns) was 1.993 and 0.8337, the “SILAC ratio (DMSO/CP-108671)” value [10] was 0.94 and the “SILAC ratio (DMSO/CP-108671)” value [11] was 0.86. For the same compound, the “Median SILAC Ratio (Heavy/Light)” value [12] was 1.679, the “Median SILAC Ratio (Heavy/Light)” value [13] was 1.679 and the “SILAC ratio (DMSO/CP-108671)” value ([14]; P07339 CTSD Cathepsin D) was 3.62. The “SILAC result for CatD” value ([14]; pretreatment 2 µM inhibitor, PF-7802 100 nM, ARPE-19 cells) was “high SILAC ratios for CatD”, the “Median SILAC Ratio (Heavy/Light)” value ([14]; protein CTSD Cathepsin D (P07339)) was 0.2845 and 0.2761 and the “Median SILAC Ratio (Heavy/Light)” value [15] was 1.521. The “Median SILAC Ratio (Heavy/Light)” value [16] was 1.405.

For Cc1cc([C@H]2C[C@H]3[C@@H](C)SC(N)=N[C@@]3(c3ccc(F)cc3F)CO2)on1 [PF-9283], the “Median SILAC Ratio (Heavy/Light)” value [17] was 1.336, the “Median SILAC Ratio (Heavy/Light)” value [18] was 1.289 and 2.223 and the “Median SILAC Ratio (Heavy/Light)” value [19] was 1.688. For the same compound, the “Median SILAC Ratio (Heavy/Light)” value [20] was 1.424, the “Median SILAC Ratio (Heavy/Light)” value [21] was 14.9263 and the “Median SILAC Ratio (Heavy/Light)” value [22] was 1.366 and 0.9279. For the same compound, the “Median SILAC Ratio (Heavy/Light)” value [23] was 0.783, the “Median SILAC Ratio (Heavy/Light)” value [24] was 1.69 and the “Median SILAC Ratio (Heavy/Light)” value [25] was 0.9932. The “Median SILAC Ratio (Heavy/Light)” value [26] was 0.6905 and 0.7654 and the “Median SILAC Ratio (Heavy/Light)” value [27] was 1.312.

Values joined by “and” are separate entries in the source; they are usually repeats but may differ in a detail not shown here. Equal values may be shown once.
